# Screen size: about 350,000 compounds; about 9,900 (2.8%) were called active. Inconclusive means that the source gave no clear call. Such entries were picked first, then a sample of the others. The call rests on the fitted dose curve; in most records, active means well fitted activation curve with a large enough effect; inconclusive means small, poorly fitted or top-dose-only effect; inactive means no such curve, though single readings can be large or run the other way. Potencies of inconclusive entries are left out as doubtful fits.
# Assay: A quantitative high throughput screen for small molecules that induce DNA re-replication in MCF 10a normal breast cells. Further: nearly all actives have a fitted effect of over 50% in size.
# Settings: MCF 10A DNA re-replication, Hoechst nuclear intensity, 48 h; series mostly up to 46.1 µM
# Potency means the concentration at half of the fitted maximal effect; tags describe the fitted curve by direction and shape.
row,Structure (SMILES),Potency
1,Cc1ccc(/C=N/NC(=O)c2cccnc2)s1,inactive
2,Oc1cccc(C=Nc2cccc3ccccc23)c1O,active: 18.4 µM
3,CCOC(=O)c1sc(NC(=O)c2ccoc2C)c(C(N)=O)c1C,inactive
4,NC(=O)CC(NSc1ccccc1[N+](=O)[O-])C(=O)O (stereo not given),inactive
5,O=C(CCCc1nc2ccccc2s1)NNC(=O)CCN1CCN(Cc2ccccc2)CC1,"inconclusive [activator, single point]"
6,Cc1c(Cl)cccc1NC(=S)NCc1ccc(Cl)cc1,"inconclusive [activator, partial curve, poor fit]"
7,Cc1ccc(Nc2c(-c3ccccn3)nc3cc(C)ccn23)cc1,"inconclusive [activator, partial curve, poor fit]"
8,O=C(NCC(c1ccco1)N1CCCC1)c1ccccc1Sc1ccc(C(F)(F)F)cc1[N+](=O)[O-] (stereo not given),inactive
9,CCCCNS(=O)(=O)c1ccc(NC(=O)C2c3ccccc3Oc3ccccc32)cc1,"inconclusive [activator, partial curve, poor fit]"
10,O=C(OCC(=O)c1c[nH]c2ccccc12)c1cc(Br)ccc1O,"inconclusive [activator, single point]"
11,CCOc1ccc2[nH]c(=O)c(CN(CC3CCCN3CC)C(=O)NCc3ccccc3)cc2c1 (stereo not given),"inconclusive [activator, partial curve, poor fit]"
12,Cc1csc(SCC(=O)Nc2cc([N+](=O)[O-])ccc2F)n1,"inconclusive [activator, single point]"
13,COc1cc2c(cc1OC)CN(C(=O)CCOc1ccccc1C)CC2,"inconclusive [activator, partial curve]"
14,COc1cc(/C=C2/C(=O)NN(c3ccc(Cl)cc3)C2=O)ccc1OC(=O)c1ccco1,"inconclusive [activator, single point]"
15,CC(C)Sc1nsc2nc(=O)c(/C=C3\C=Nc4ccccc43)c(N)n12,active: 18.4 µM
16,Oc1ccc(C=NNC(=S)Nc2ccc(F)cc2)c(O)c1,"inconclusive [activator, single point]"
17,O=C1Nc2ccccc2C12OCC1(CO2)COC2(OC1)C(=O)Nc1ccccc12 (stereo not given),inactive
18,CC(C)(C)OC(=O)N(CCc1ccccc1)Cc1cccc(OCc2cccc(NC(=O)C3CCCC3)c2)c1,"inconclusive [activator, full curve, poor fit]"
19,CC(C)(C)c1csc(N/N=C/c2ccc(O)cc2)n1,"inconclusive [activator, full curve]"
20,O=c1c2ccccc2c(C=Nc2cccc(O)c2)c(O)n1-c1ccc2c(c1)OCO2,active: 14.6 µM
21,CC1CCCN(S(=O)(=O)c2ccc3c(c2)c(=O)nc2ccccn23)C1 (stereo not given),inactive
22,O=C(Nc1ccccn1)c1ccc2c(c1)OCO2,inactive
23,CCOC(=O)c1c(CN2CCOCC2)n(C)c2cc(Br)c(O)c(CN(C)C)c12,"inconclusive [activator, single point]"
24,Cc1cc(-c2ccc(C(C)C)c(S(=O)(=O)N3CCN(c4ccccn4)CC3)c2)on1,active: 4.11 µM

row,Structure (SMILES),Potency
1,COc1cc([N+](=O)[O-])cc(/C=N\NC(=O)C2COc3ccccc3O2)c1O (stereo not given),"inconclusive [activator, single point]"
2,O=C(Nc1ccccc1)OCCOc1ccccc1,inactive
3,CCCCCCn1c(N2CCCC2)nc2c1c(=O)n(C)c(=O)n2C,"inconclusive [activator, partial curve, poor fit]"
4,Cc1nn(-c2ccccc2)c(C)c1-c1cc(C(=O)N/N=C/c2ccc(O)cc2)[nH]n1,active: 18.4 µM
5,C/C(=N\NC(=O)c1ccc(Cl)c(Cl)c1)c1ccc(Br)s1,inactive
6,CN(C)S(=O)(=O)c1ccc(NC(=O)Cn2ccsc2=N)cc1,inactive
7,COc1ccc(NC(=S)NC(NC(=O)c2ccc(Cl)cc2Cl)C(Cl)(Cl)Cl)c([N+](=O)[O-])c1 (stereo not given),inactive
8,Cc1ccc(N(CCC#N)C(=O)COC(=O)C2CCN(S(=O)(=O)c3ccc4c(c3)OCCO4)CC2)cc1,inactive
9,COc1cc(OC)c(N(C)S(=O)(=O)c2cccc(C(=O)OCC(=O)c3c[nH]c4ccccc34)c2)cc1Cl,inactive
10,CC(C)(C)c1ccc(/C=C(\C#N)C(=O)NC2CC2)cc1,"inconclusive [activator, full curve, poor fit]"
11,Cc1nnc(SCC(=O)NC(=O)Nc2ccc3c(c2)OCCO3)s1,inactive
12,CC(C)c1ccc(NC(=S)NC2CCCCCC2)cc1,"inconclusive [activator, single point]"
13,Cc1csc(NC(=O)c2ccccc2O)n1,inactive
14,COc1nc2c(c(-c3cc(Br)cs3)c1C#N)Cc1ccccc1-2,"inconclusive [activator, single point]"
15,O=C(CCNC(=O)c1ccc(Br)cc1)NNC(=O)C1COc2ccccc2O1 (stereo not given),inactive
16,COc1ccccc1OCC(=O)Nc1oc(-c2ccccc2)c(-c2ccccc2)c1C#N,"inconclusive [activator, single point]"
17,COC(=O)[C@@H](NCc1ccc(OC)c(B(O)O)c1)C(C)C,"inconclusive [activator, full curve, poor fit]"
18,CCN1CCN(c2ccc(S(=O)(=O)N3CCCCC3)cc2NC(=O)/C=C/c2ccc([N+](=O)[O-])cc2)CC1,"inconclusive [activator, single point]"
19,COc1ccc(N2CCC(CNC(=S)Nc3c(C)cc(C)cc3C)C2)cc1 (stereo not given),inactive
20,N#Cc1ccc(OCC(=O)N2CCN(S(=O)(=O)c3cccs3)CC2)cc1,"inconclusive [activator, partial curve, poor fit]"
21,CCCC[C@@H]1C[C@H]1[C@@H](NC(=O)c1ccco1)c1ccc(Cl)cc1,"inconclusive [activator, single point]"
22,O=C1N(c2ccc(Cl)cc2)C(c2ccccc2)N2CCCN12 (stereo not given),inactive
23,N#Cc1c(-c2ccc(F)cc2)cc(-c2cccs2)nc1SCC(=O)O,active: 23.1 µM
24,COc1ccc(-n2c(C)cc(-c3cn4cccc(C)c4n3)c2C)cc1,"inconclusive [activator, single point]"

row,Structure (SMILES),Potency
1,COc1ccc(S(=O)(=O)Nc2ccc(N3CCOCC3)nc2)cc1,"inconclusive [activator, partial curve, poor fit]"
2,CC(=O)c1c(NCCc2ccccc2)nc(=S)n(-c2ccccc2)c1C,"inconclusive [activator, partial curve, poor fit]"
3,COc1cccc(/C=N/n2c(COc3ccccc3)n[nH]c2=S)c1O,"inconclusive [activator, single point]"
4,Cc1ccc(OCC(=O)Nc2ccc(N3CCN(C(=O)c4ccco4)CC3)cc2)cc1,inactive
5,CCOC(=O)N1CCC(NC(=O)c2ccc3c(c2)sc2nc(-c4ccccc4)cn23)CC1,"inconclusive [activator, partial curve, poor fit]"
6,C#CCn1c(=NC(=O)c2ccc(Br)s2)sc2cccc(OC)c21,"inconclusive [activator, single point]"
7,N/C(=N\c1nc2ccccc2o1)NC(=O)C(Cc1ccccc1)N1C(=O)c2ccccc2C1=O (stereo not given),"inconclusive [activator, single point]"
8,O=C(N/N=C/C(Cl)=C/c1ccccc1)c1ccncc1,"inconclusive [activator, single point]"
9,Cc1cc(C)c2nc3nc(C)c(C)cc3c(N)c2c1,"inconclusive [activator, single point]"
10,O=C(CSc1nnc(-c2ccccc2F)o1)N1CCCC1,inactive
11,COc1cc(C(=O)Nc2cccc(S(=O)(=O)N3CCCC3)c2)cc(OC)c1C,"inconclusive [activator, partial curve, poor fit]"
12,COc1cc(C)c(C2NC(=O)c3ccccc3N2)cc1C (stereo not given),active: 7.31 µM
13,CC(Nc1c([N+](=O)[O-])c(=O)oc2ccccc12)C(Cl)c1ccccc1 (stereo not given),"inconclusive [activator, single point]"
14,CNC[C@H](CC1CCCCC1)NC[C@H](CO)NCC1(c2ccccc2)CC1,"inconclusive [activator, single point]"
15,N=c1n(CCN2CCCCC2)c2ccccc2n1CC(=O)c1cccs1,"inconclusive [activator, single point]"
16,COC(=O)c1[nH]c2ccccc2c1NC(=O)CNC1CCCCC1,"inconclusive [activator, single point]"
17,CCOC(=O)CNc1nc(C(C)(C)C)nc2c1nnn2Cc1ccccc1,"inconclusive [activator, partial curve, poor fit]"
18,COc1ccc(CCN2CCCC(CN(C)Cc3cc(OC)ccc3OC)C2)cc1 (stereo not given),active: 0.651 µM
19,CC(=O)c1ccc(N2CCN(C(=O)c3nn(Cc4ccccc4)c(=O)c4ccccc34)CC2)cc1,"inconclusive [activator, partial curve, poor fit]"
20,COC(=O)CCC(=O)N1CCCC(CO)(Cc2ccccc2F)C1 (stereo not given),inactive
21,COc1ccc(/C=C(\NC(=O)c2ccccc2)C(=O)N2CCN(C)CC2)cc1OC,inactive
22,Cc1ccc(C(=O)N[C@H](C(=O)Nc2sccc2C(N)=O)C(C)C)cc1,"inconclusive [activator, single point]"

# — PubChem BioAssay AID624296 (National Center for Advancing Translational Sciences (NCATS), 2012)
